Experimental findings from the RNAGym collection of RNA variant scans (doi:10.7554/elife.90254) are described below.

The labels stand for the following.
B1: LINE1-mini (parent)
chain: GGCAGAGCUCAACACAGCGUGGCAAAGUGGCUGUGGCUAGACUGCC

The source gives no read counts; variants with many changes may rest on few reads.

The variants in this data set derive from B1. In words: self-cleavage, relative activity (ratio to wild type); higher = more cleavage; in vitro, sequencing; the parent is a self-cleaving ribozyme.
As to GGCAGGGCUCAAAACAGCGUUGCAAAGUGGGUGUGGCUAGACUUCC [A6G C13A G21U C31G G44U], the self-cleavage was determined as 0.03.
To GGCAGGGCUCAACAAAGCGUGGCAAAGUGGUCGUGGCUAGACAGCC [A6G C15A C31U U32C U43A] belongs 0.04; to GGCAGGGCUCAAUGCAGCGUGGCAAAGUGGCUGUCGCUAGACUGCC [A6G C13U A14G G35C], 0.09.
To GGCAGGGCUCAAUACAGCAAGGCAAAGUGGCUGUGGCUAGACUGCC [A6G C13U G19A U20A] belongs 0.14.
For the variant GGCAGGGCUUAACACACCGAGGCAAAGUGGUUGUGGCUGGACUGCC [A6G C10U G17C U20A C31U A39G], the self-cleavage was found to be 0.
For the variant GGCAGGGCUUAACACAUCGUGGCAAUGUGGCUGUGGCUAGACUGCC [A6G C10U G17U A26U], the self-cleavage came to 0.02.
As to GGCAGGGCUCAACACAGCGUGGAAAAAUGGCUUUGGCUAGACUGCC [A6G C23A G27A G33U], the self-cleavage was 0.08.
Turning to GGCAGGUCUCAAUACAGCGUGGCAAAGUUGCUGUGGCUAGACUGCC [A6G G7U C13U G29U], the self-cleavage is 0.08.
As to GGCAGGGCUCAACACAGCGUGGCAAAGUGGUUGUGGCAAGACUGCC [A6G C31U U38A], the self-cleavage worked out at 0.08.
Regarding GGCAGGGCUCAACACAACGUGGCAAAGUGGCUGUGGCUUGACUACC [A6G G17A A39U G44A], the self-cleavage came out at 0.04.
On to GGCAGGGCUGAACACAGCGUGGCAACUUGGCUGUGGCUAGACUGAC [A6G C10G A26C G27U C45A], for which the self-cleavage came out at 0.01.
On to GGCAGGGCUCAACAAAGGGUGGCAAAGUGGCUGUGGCUAGACUGCC [A6G C15A C18G], for which the self-cleavage was determined as 0.
As to GGCAGGGCUGAAUACAUCGUGGCAGAGUGGCAGUGGCUAGACUGCC [A6G C10G C13U G17U A25G U32A], the self-cleavage was 0.01.
To GGCAGGGCUUAACACAACGUUGCAAAGUGGCCGUGAGGAGACUGCC [A6G C10U G17A G21U U32C G36A C37G U38G] belongs 0.01; to GGCAGGGCUCAAUACAGCGUGGCAAAGUGGCUGUGGCUAGACUGAC [A6G C13U C45A], 0.12; to GGCAGGGCUCAACAAAGCGGGGCAAAGAGGCUGUCACUAGACUGCC [A6G C15A U20G U28A G35C G36A], 0.01.
With GGCAGGGCUCAACACAGAGUGGCAAGUGGGCUGUGGCUAGACUGGC [A6G C18A A26G G27U U28G C45G], the self-cleavage came to 0.03.
To GGCAGGGCUCAAGACAUCGUGGCAAAGUGGCUGUGGCUAGACUGCC [A6G C13G G17U] belongs 0.03; to GGCAGGUCUCAACACAGCGUUGCAAAGUGGCUGUGGCUAGGCUGCC [A6G G7U G21U A41G], 0.01; to GGCAGGGCUCAACAGAGCGUGGCUAAGUGGCUGUGGAUAGACAGCC [A6G C15G A24U C37A U43A], 0.09.
Consider GGCAGGGCUCAACAGAGCUUGGCAACGUGGCUGUGCCUAGACUUCC [A6G C15G G19U A26C G36C G44U], for which the self-cleavage is 0.01.
As to GGCAGGCCUCAACACAGCGUGGCAAAGUGGCUGAGGCUAGACUGCA [A6G G7C U34A C46A], the self-cleavage amounted to 0.
Take GGCAGGCCUCAAAACACCGUGGCCAACUGGCUGUGGCUAGACUGCC [A6G G7C C13A G17C A24C G27C]: the self-cleavage is 0.04.
For GGCAGGGCUCAAGACAGCGUGGCGAUGUGGCUGUGGCGAGACUGCC [A6G C13G A24G A26U U38G], the self-cleavage was 0.01.
GGCAGGCCUCAACACAGCGUGGCAUAGUGGCUGUGGCUAGACUGCC [A6G G7C A25U]: the self-cleavage was 0.08.
For GGCAGGGCUCAACACAGAGUGGCAAAGUGGCUGUGGGUAGACUGCC [A6G C18A C37G], the self-cleavage is 0.01.
Regarding GGCAGGGCUCAACACAGCGUGGCAAAGUGGAUGUGGCUAGACUGCG [A6G C31A C46G], the self-cleavage worked out at 0.01.
The result for GGCAGGGCUCAACACAGCGUGGAGUAGUGGCUGUGGCUAGACUUCC [A6G C23A A24G A25U G44U] reads 0.03.
Take GGCAGGGCUCAACAUAUCGUGGCAAAGUGGCUGUGGCUAGACUGCC [A6G C15U G17U]: the self-cleavage was found to be 0.02.
As to GGCAGGGCUUAACGCAGUGUGGCAAAGUGGCUGAGGCUUGACUGCC [A6G C10U A14G C18U U34A A39U], the self-cleavage was found to be 0.01.
Take GGCAGGGCUCAAAACAGCGUGGGAAAGUGGCUGUGGCUAGACUGCC [A6G C13A C23G]: the self-cleavage came out at 0.06.
To GGCAGGGCUCAACACAGCGUGGCAAAGUGGUUGUGGCUAGACUACC [A6G C31U G44A] belongs 0.03; to GGCAGGGCUCAAUACAGCGUGGCAAAUUGCCUGCGGCUAGACUACC [A6G C13U G27U G30C U34C G44A], 0.1.
Turning to GGCAGGCUCAACACCAGCGUGGCAAAGUGGCUGUGGCGAGACUGCC [A6G G7C C8U U9C C10A A12C C13A A14C U38G], the self-cleavage came out at 0.
Consider GGCAGGGCUCAACACAGGGUGUCAAAGUGGCUGUGUCUAGACUCCC [A6G C18G G22U G36U G44C], for which the self-cleavage is 0.02.
With GGCAGGGCUGAACACAGCCUGGCAAAGGGGCUGUGGCUAAACUGCC [A6G C10G G19C U28G G40A], the self-cleavage is 0.
Take GGCAGGGCUCAACACAGCGUGGUAAAGUGGCUGUGGCUAGAUUGCC [A6G C23U C42U]: the self-cleavage is 0.21.
To GGCAGGGCUCAACAAAACGUGGCAAAGUGGCUGUCGCUAGACUGCC [A6G C15A G17A G35C] belongs 0; to GGCAGGGCUCAACACAGCGUGGCAAAGUGGCUGUGGAUAGACUUCC [A6G C37A G44U], 0.05.
With GGCAGGGCUCAACACAGGGUGGCUAAGUGGCUGUGGCUAGACUGCC [A6G C18G A24U], the self-cleavage came out at 0.
As for GGCAGGUAUCAACACAGCGUGGCAAAGUGACUGUGGCUUGACUGGC [A6G G7U C8A G30A A39U C45G], the self-cleavage is 0.24.
Consider GGCAGGGCUCAACACAGUGUGGCAAAGUGGCUGCGGCUAGACUGCC [A6G C18U U34C], for which the self-cleavage was 0.03.
As to GGCAGGGCUUAACAAAGCGUGGCAAAGUGGUUGUGGCUAGGCUGCC [A6G C10U C15A C31U A41G], the self-cleavage turned out to be 0.03.
Take GGCAGGGCUUAACACAGCAUGGCGAAGUGGCUGUGGCAAGACUGCC [A6G C10U G19A A24G U38A]: the self-cleavage is 0.
As for GGCAGGGCUGAACACAGCGUGGCUAAGUGACUGUGGCUAGACUGCC [A6G C10G A24U G30A], the self-cleavage was found to be 0.
The result for GGCAGGUCUCAACACAGCGUGGCAAAGUGGGUGUGGCUAGACUGCC [A6G G7U C31G] reads 0.08.
With GGCAGGGCUCAACACAGCGUGGCAAAGUGGUUGUGGCUGGACUGCC [A6G C31U A39G], the self-cleavage came out at 0.01.
Turning to GGCAGGUCUCAACACAGCGUGGCAAAGUGGCUGUGGCUAUACUGGC [A6G G7U G40U C45G], the self-cleavage is 0.26.
For the variant GGCAGGGCUCAAAACCGCGUGACAAAGUGGCUGUGGCUAGCCUGCC [A6G C13A A16C G22A A41C], the self-cleavage worked out at 0.08.
As for GGCAGGGCUGAACACAGCGUGGCAAAGGGCCUGUGGCUAGACUGUC [A6G C10G U28G G30C C45U], the self-cleavage was 0.01.
The result for GGCAGGGCUCAAUACAGCGUGGCAAUGUGGCUGUGGCGAGAUUGCC [A6G C13U A26U U38G C42U] reads 0.05.
To GGCAGGGCUAAACACAGCUUGGCAAAGUGGCUGGGGCUAGACUGCC [A6G C10A G19U U34G] belongs 0.02; to GGCAGGGCUCAACAUAGCGUGGCAAAUUGGCUGUGACUAGACUGCC [A6G C15U G27U G36A], 0.04.
With GGCAGGGCUCAACACAGCGUGGAAAAGUGGAUGUGGGUAGACUGCU [A6G C23A C31A C37G C46U], the self-cleavage was 0.03.
On to GGCAGGUCUUAACACAGCGUGGCAAAGUGGCAGUGGCUAGACUGCA [A6G G7U C10U U32A C46A], for which the self-cleavage is 0.03.
The result for GGCAGGACUCAUCACAGCGUGGCAAGGUGGCUGUUGCUAGACUGCC [A6G G7A A12U A26G G35U] reads 0.03.
